Assay [1] has as its target T1, BBX19 fused to nLUC or cLUC (luciferase complementation) (Arabidopsis thaliana) (UniProt C0SVM5).
T1 sequence: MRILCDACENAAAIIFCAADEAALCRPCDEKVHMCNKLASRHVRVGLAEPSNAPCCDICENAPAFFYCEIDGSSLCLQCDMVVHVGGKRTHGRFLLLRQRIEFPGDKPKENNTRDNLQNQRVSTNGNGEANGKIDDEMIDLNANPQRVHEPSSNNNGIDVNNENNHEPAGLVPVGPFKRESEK
The experiment in a line: split reporter; luciferase complementation (nLUC and cLUC fusions) in transgenic Arabidopsis plants, fusion proteins driven by their own promoters; recombined LUC activity monitored for 72 h with a TopCount luminometer under 12-h:12-h LD and LL.

Assay [2] concerns the target T2, BBX18 (yeast two-hybrid fusion) (Arabidopsis thaliana) (UniProt Q9SJU5).
T2 sequence: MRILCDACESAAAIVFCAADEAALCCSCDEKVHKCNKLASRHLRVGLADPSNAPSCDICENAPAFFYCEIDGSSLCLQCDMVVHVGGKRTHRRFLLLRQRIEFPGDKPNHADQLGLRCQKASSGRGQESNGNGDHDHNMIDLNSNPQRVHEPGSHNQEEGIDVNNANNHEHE
Kind of assay: two-hybrid; yeast two-hybrid; AD (activating domain) and BD (binding domain) fusions; -LW and selective -LWHA medium.

In assay [3] the target is T3, BBX19 (yeast two-hybrid fusion) (Arabidopsis thaliana) (UniProt C0SVM5).
T3 sequence: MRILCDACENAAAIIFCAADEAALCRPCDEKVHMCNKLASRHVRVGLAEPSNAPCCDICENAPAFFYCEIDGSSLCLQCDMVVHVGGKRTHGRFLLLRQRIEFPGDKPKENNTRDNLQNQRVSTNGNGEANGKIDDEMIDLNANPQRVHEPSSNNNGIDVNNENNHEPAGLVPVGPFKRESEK
The description is as above.

The target of assay [4] is T4, BBX18 fused to nLUC or cLUC (luciferase complementation) (Arabidopsis thaliana) (UniProt Q9SJU5).
T4 sequence: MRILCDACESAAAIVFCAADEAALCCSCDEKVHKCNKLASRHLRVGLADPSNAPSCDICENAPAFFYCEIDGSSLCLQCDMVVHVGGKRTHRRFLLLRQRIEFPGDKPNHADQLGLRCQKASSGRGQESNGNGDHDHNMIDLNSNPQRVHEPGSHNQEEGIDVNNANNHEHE
Kind of assay: split reporter; luciferase complementation (nLUC and cLUC fusions) in transgenic Arabidopsis plants, fusion proteins driven by their own promoters; recombined LUC activity monitored for 72 h with a TopCount luminometer under 12-h:12-h LD and LL.

Assay [5] concerns the target T5, BBX18 with GFP (pCsVMV:GFP-1300 construct, co-immunoprecipitation) (Arabidopsis thaliana) (UniProt Q9SJU5).
T5 sequence: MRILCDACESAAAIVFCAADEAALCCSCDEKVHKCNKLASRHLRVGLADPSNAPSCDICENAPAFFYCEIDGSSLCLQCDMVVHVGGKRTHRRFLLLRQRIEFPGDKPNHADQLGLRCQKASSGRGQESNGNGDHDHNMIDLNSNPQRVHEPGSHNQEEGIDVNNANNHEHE
The experiment in a line: co-IP; protein extracts of co-infiltrated N. benthamiana leaves, 3 days after infiltration; GFP-Trap magnetic beads, about 1 h at 4°C, washed four times; immunoblot with anti-HA and anti-FLAG. Background: In western blotting, separated proteins are transferred to a membrane and probed.

Assay [6] deals with T6, BBX19 with GFP (pCsVMV:GFP-1300 construct, co-immunoprecipitation) (Arabidopsis thaliana) (UniProt C0SVM5).
T6 sequence: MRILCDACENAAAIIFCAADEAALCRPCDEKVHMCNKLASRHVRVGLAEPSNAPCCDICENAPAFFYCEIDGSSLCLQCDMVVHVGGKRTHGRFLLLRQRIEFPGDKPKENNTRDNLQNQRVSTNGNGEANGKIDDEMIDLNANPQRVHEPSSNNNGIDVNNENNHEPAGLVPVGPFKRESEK
The assay is described as above.

These are yes or no findings as the source states them, for the method shown. For part of these data: In cells and extracts the contact can be indirect. Some entries that bind do so weakly or less than the wild type. Sequences can lack the tags named with a protein.

In paper PMC8408442 one finds binding data, which are given here for eleven molecules.

B1: PRR9-delPR-nLUC (protein, UniProt Q8L500)
chain: MGEIVVLSSDDGMETIKNRVKSSEVVQWEKYLPKTVLRRLTLRDDPTAHAQSLPASQHNLEDTDETCEDSRYHSDQGSGAQAINYNGHNKLMENGKSVDERDEFKETFDVTMDLIGGIDKRPDSIYKDKSRDECVGPELGLSLKRSCSVSFENQDESKHQKLSLSDASAFSRFEESKSAEKAVVALEESTSGEPKTPTESHEKLRKVTSDQGSATTSSNQENIGSSSVSFRNQVLQSTVTNQKQDSPIPVESNREKAASKEVEAGSQSTNEGIAGQSSSTEKPKEEESAKQRWSRSQREAALMKFRLKRKDRCFDKKVRYQSRKKLAEQRPRVKGQFVRTVNSDASTKS
B1: in assay [1], the binding result was “no binding”.

B2: PRR9-delEAR-nLUC (protein, UniProt Q8L500)
chain: MGEIVVLSSDDGMETIKNRVKSSEVVQWEKYLPKTVLRVLLVESDYSTRQIITALLRKCCYKVVAVSDGLAAWEVLKEKSHNIDLILTELDLPSISGFALLALVMEHEACKNIPVIMMSSQDSIKMVLKCMLRGAADYLIKPMRKNELKNLWQHVWRRLTLRDDPTAHAQSLPASQHNLEDTDETCEDSRYHSDQGSGAQAINYNGHNKLMENGKSVDERDEFKETFDVTMDLIGGIDKRPDSIYKDKSFENQDESKHQKLSLSDASAFSRFEESKSAEKAVVALEESTSGEPKTPTESHEKLRKVTSDQGSATTSSNQENIGSSSVSFRNQVLQSTVTNQKQDSPIPVESNREKAASKEVEAGSQSTNEGIAGQSSSTEKPKEEESAKQRWSRSQREAALMKFRLKRKDRCFDKKVRYQSRKKLAEQRPRVKGQFVRTVNSDASTKS
With B2, the binding result in assay [1] is on record as “binds”.

B3: PRR9 (yeast two-hybrid fusion) (protein, UniProt Q8L500 1-468)
chain: MGEIVVLSSDDGMETIKNRVKSSEVVQWEKYLPKTVLRVLLVESDYSTRQIITALLRKCCYKVVAVSDGLAAWEVLKEKSHNIDLILTELDLPSISGFALLALVMEHEACKNIPVIMMSSQDSIKMVLKCMLRGAADYLIKPMRKNELKNLWQHVWRRLTLRDDPTAHAQSLPASQHNLEDTDETCEDSRYHSDQGSGAQAINYNGHNKLMENGKSVDERDEFKETFDVTMDLIGGIDKRPDSIYKDKSRDECVGPELGLSLKRSCSVSFENQDESKHQKLSLSDASAFSRFEESKSAEKAVVALEESTSGEPKTPTESHEKLRKVTSDQGSATTSSNQENIGSSSVSFRNQVLQSTVTNQKQDSPIPVESNREKAASKEVEAGSQSTNEGIAGQSSSTEKPKEEESAKQRWSRSQREAALMKFRLKRKDRCFDKKVRYQSRKKLAEQRPRVKGQFVRTVNSDASTKS
Take B3: the binding result in assay [2] and in assay [3] was “binds” throughout.

B4: PRR9-nLUC (protein, UniProt Q8L500 1-468)
chain: MGEIVVLSSDDGMETIKNRVKSSEVVQWEKYLPKTVLRVLLVESDYSTRQIITALLRKCCYKVVAVSDGLAAWEVLKEKSHNIDLILTELDLPSISGFALLALVMEHEACKNIPVIMMSSQDSIKMVLKCMLRGAADYLIKPMRKNELKNLWQHVWRRLTLRDDPTAHAQSLPASQHNLEDTDETCEDSRYHSDQGSGAQAINYNGHNKLMENGKSVDERDEFKETFDVTMDLIGGIDKRPDSIYKDKSRDECVGPELGLSLKRSCSVSFENQDESKHQKLSLSDASAFSRFEESKSAEKAVVALEESTSGEPKTPTESHEKLRKVTSDQGSATTSSNQENIGSSSVSFRNQVLQSTVTNQKQDSPIPVESNREKAASKEVEAGSQSTNEGIAGQSSSTEKPKEEESAKQRWSRSQREAALMKFRLKRKDRCFDKKVRYQSRKKLAEQRPRVKGQFVRTVNSDASTKS
Consider B4, for which the binding result in assay [1] and in assay [4] was “binds” each time.

B5: PRR9-HA (pCsVMV:PRRs-HA-1300 construct, co-immunoprecipitation) (protein, UniProt Q8L500 1-468)
chain: MGEIVVLSSDDGMETIKNRVKSSEVVQWEKYLPKTVLRVLLVESDYSTRQIITALLRKCCYKVVAVSDGLAAWEVLKEKSHNIDLILTELDLPSISGFALLALVMEHEACKNIPVIMMSSQDSIKMVLKCMLRGAADYLIKPMRKNELKNLWQHVWRRLTLRDDPTAHAQSLPASQHNLEDTDETCEDSRYHSDQGSGAQAINYNGHNKLMENGKSVDERDEFKETFDVTMDLIGGIDKRPDSIYKDKSRDECVGPELGLSLKRSCSVSFENQDESKHQKLSLSDASAFSRFEESKSAEKAVVALEESTSGEPKTPTESHEKLRKVTSDQGSATTSSNQENIGSSSVSFRNQVLQSTVTNQKQDSPIPVESNREKAASKEVEAGSQSTNEGIAGQSSSTEKPKEEESAKQRWSRSQREAALMKFRLKRKDRCFDKKVRYQSRKKLAEQRPRVKGQFVRTVNSDASTKS
With B5, the binding result in assay [5] and in assay [6] was “binds” in each case.

B6: LUX (yeast two-hybrid fusion) (protein, UniProt Q9SNB4 1-323)
chain: MGEEVQMSDYDVSGDGDRVSEWEMGLPSDEDLASLSYSLIPPNLAMAFSITPERSRTIQDVNRASETTLSSLRGGSSGPNTSSSNNNVEEEDRVGSSSPGSDSKKQKTSNGDGDDGGGVDPDSAMAAEEGDSGTEDLSGKTLKRPRLVWTPQLHKRFVDVVAHLGIKNAVPKTIMQLMNVEGLTRENVASHLQKYRLYLKRMQGLTNEGPSASDKLFSSTPVPPQSFQDIGGGGGSSGNVGVPIPGAYGTQQMMQMPVYAHHMGMQGYHHQNHNHDPYHQNHRHHHGAGGNGAFESNPYMMQQNKFGSMASYPSVGGGSANEN
As for B6, the binding result in assay [2] and in assay [3] was “no binding” in each case.

B7: BBX18 fused to nLUC or cLUC (luciferase complementation) (protein, UniProt Q9SJU5 1-172)
chain: MRILCDACESAAAIVFCAADEAALCCSCDEKVHKCNKLASRHLRVGLADPSNAPSCDICENAPAFFYCEIDGSSLCLQCDMVVHVGGKRTHRRFLLLRQRIEFPGDKPNHADQLGLRCQKASSGRGQESNGNGDHDHNMIDLNSNPQRVHEPGSHNQEEGIDVNNANNHEHE
Regarding B7, the binding entry in assay [1] and in assay [4] was “binds” throughout.

B8: BBX18 (yeast two-hybrid fusion) (protein, UniProt Q9SJU5 1-172)
chain: MRILCDACESAAAIVFCAADEAALCCSCDEKVHKCNKLASRHLRVGLADPSNAPSCDICENAPAFFYCEIDGSSLCLQCDMVVHVGGKRTHRRFLLLRQRIEFPGDKPNHADQLGLRCQKASSGRGQESNGNGDHDHNMIDLNSNPQRVHEPGSHNQEEGIDVNNANNHEHE
Take B8: the binding result in assay [2] and in assay [3] was “binds” throughout.

B9: BBX19 fused to nLUC or cLUC (luciferase complementation) (protein, UniProt C0SVM5 1-183)
chain: MRILCDACENAAAIIFCAADEAALCRPCDEKVHMCNKLASRHVRVGLAEPSNAPCCDICENAPAFFYCEIDGSSLCLQCDMVVHVGGKRTHGRFLLLRQRIEFPGDKPKENNTRDNLQNQRVSTNGNGEANGKIDDEMIDLNANPQRVHEPSSNNNGIDVNNENNHEPAGLVPVGPFKRESEK
B9: the binding entry in assay [1] is “binds”.

B10: BBX19 (yeast two-hybrid fusion) (protein, UniProt C0SVM5 1-183)
chain: MRILCDACENAAAIIFCAADEAALCRPCDEKVHMCNKLASRHVRVGLAEPSNAPCCDICENAPAFFYCEIDGSSLCLQCDMVVHVGGKRTHGRFLLLRQRIEFPGDKPKENNTRDNLQNQRVSTNGNGEANGKIDDEMIDLNANPQRVHEPSSNNNGIDVNNENNHEPAGLVPVGPFKRESEK
On to B10, for which, in assay [3], the binding entry was “binds”.

B11: LHY (yeast two-hybrid fusion) (protein, UniProt Q6R0H1 1-645)
chain: MDTNTSGEELLAKARKPYTITKQRERWTEDEHERFLEALRLYGRAWQRIEEHIGTKTAVQIRSHAQKFFTKLEKEAEVKGIPVCQALDIEIPPPRPKRKPNTPYPRKPGNNGTSSSQVSSAKDAKLVSSASSSQLNQAFLDLEKMPFSEKTSTGKENQDENCSGVSTVNKYPLPTKQVSGDIETSKTSTVDNAVQDVPKKNKDKDGNDGTTVHSMQNYPWHFHADIVNGNIAKCPQNHPSGMVSQDFMFHPMREETHGHANLQATTASATTTASHQAFPACHSQDDYRSFLQISSTFSNLIMSTLLQNPAAHAAATFAASVWPYASVGNSGDSSTPMSSSPPSITAIAAATVAAATAWWASHGLLPVCAPAPITCVPFSTVAVPTPAMTEMDTVENTQPFEKQNTALQDQNLASKSPASSSDDSDETGVTKLNADSKTNDDKIEEVVVTAAVHDSNTAQKKNLVDRSSCGSNTPSGSDAETDALDKMEKDKEDVKETDENQPDVIELNNRKIKMRDNNSNNNATTDSWKEVSEEGRIAFQALFARERLPQSFSPPQVAENVNRKQSDTSMPLAPNFKSQDSCAADQEGVVMIGVGTCKSLKTRQTGFKPYKRCSMEVKESQVGNINNQSDEKVCKRLRLEGEAST
Regarding B11, the binding result in assay [2] and in assay [3] was “no binding” throughout.
